Experimental data as given in article PMC12136788.
This is one part of the list.

T1: UNK ZnF1-6 (called full-length) (human, UniProt Q9C0B0 30-357)
T1 sequence: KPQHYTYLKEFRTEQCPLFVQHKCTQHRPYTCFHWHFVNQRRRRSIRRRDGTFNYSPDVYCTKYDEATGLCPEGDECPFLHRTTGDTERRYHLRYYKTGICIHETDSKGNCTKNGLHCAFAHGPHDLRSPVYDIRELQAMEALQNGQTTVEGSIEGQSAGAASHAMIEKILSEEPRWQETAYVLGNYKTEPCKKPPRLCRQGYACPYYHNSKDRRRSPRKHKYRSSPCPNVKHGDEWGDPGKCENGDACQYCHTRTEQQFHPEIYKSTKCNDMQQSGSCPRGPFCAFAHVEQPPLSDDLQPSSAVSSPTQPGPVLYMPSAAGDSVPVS

B1: chr6:89794666:89794767:-|CDS|ENSG00000112159|unk|FALSE|unique (ssRNA)
RNA: GGGAGUUCUACAGUCCGACGAUCCCAGUCUUUCAAAGACUUUUCCUAGAGAGUUCAGAUGCUAAUCCAGUACGCUAUGGACGUAGGAGGAUGAAGCUCCGGGACCUAAUGGAAGCAGCCUUCAAGUUUCUGCAGCAGGAGCAGCAACAGAGGAUUGAGCAUCA
B2: chr19:6534681:6534787:+|CDS|ENSG00000125657|unk|FALSE|unique (ssRNA)
RNA: GGGAGUUCUACAGUCCGACGAUCAGAGGACACGAAGGAGCUGGUGGUGGCCAAGGCUGGAGUCUACUAUGUCUUCUUUCAACUAGAGCUGCGGCGCGUGGUGGCCGGCGAGGGCUCAGGCUCCGUUUCACUUGCGCUGCACCUCAACAGAGGAUUGAGCAUCA
B3: chr19:33301014:33301115:-|3pUTR|ENSG00000245848|unk|total|mutant (ssRNA)
RNA: GGGAGUUCUACAGUCCGACGAUCUCCCUGCGAGGAGGGGAGAAUUCUUGGGGCUGAGCUGGGAGCCCGGCAACUCCCGUAUUCCGGAUAACCUUGUGCCUUGGAAAUGCAAACUCACCGCUCCAAUGCCUACUGAGCCGGGGGCAACAGAGGAUUGAGCAUCA
B4: ENSG00000171649:stop:overlap|stop_codon|ENSG00000171649|stop_codon|NA|stop_codon (ssRNA)
RNA: GGGAGUUCUACAGUCCGACGAUCCUCAGGUUGUGGCCAUGGAACAGAGGAUGAAGAGACACCUUCUGACCAGAAUGUUUCUGUAGGAGUGUCACAGUCAAAGGCAGGUUCAUCCACACAGAAGACUCAAUCCUGUGAGAUGUGCAACAGAGGAUUGAGCAUCA
B5: chr15:32969305:32969406:-|CDS|ENSG00000248905|unk|FALSE|unique (ssRNA)
RNA: GGGAGUUCUACAGUCCGACGAUCCGAGCAUGCAAUGAUAACAGCGAGACUAGAAGAAACCAUUGAAAAUCUGAAACACGAGCUAGAACACAGAUGGCGAGGGGGUUGUGAAGAGAGGAAAGAUGUGUGCAUUUCCACCGAUGACAACAGAGGAUUGAGCAUCA
B6: chrX:120258281:120258382:+|3pUTR|ENSG00000177485|msi1|FALSE|bound_elsewhere (ssRNA)
RNA: GGGAGUUCUACAGUCCGACGAUCUGUACAAUCUUCCCUGUCAUGACUUUAAGUUCUACUUUUCAUUAACCAUGGCCUGAUAUUAGUUCUUAGAGCUUCUUGUGGCAAAAAUAAAAUGAUUUAAUUCUGAUGUUUGAGUGCGUGCAACAGAGGAUUGAGCAUCA
B7: chr1:193013303:193013404:-|3pUTR|ENSG00000116750|unk|FALSE|unique (ssRNA)
RNA: GGGAGUUCUACAGUCCGACGAUCAAACCACUCUAGCUAUUUGAAGAGGAAUGCAGAUUUAUAUUGGGAGUUUUGAAACUACAUAGUUUCUUACAAAAUCAUUGGAAGGUUUGGAGGAGCGGUUUCAAGCUUAAGUCUCCAGAGCAACAGAGGAUUGAGCAUCA
B8: chr3:9371215:9371332:+|CDS|ENSG00000134077|unk|total|mutant (ssRNA)
RNA: GGGAGUUCUACAGUCCGACGAUCUGGACAAGAAGUCAAAAUCGAUCAGAGAAAUGUUAAAAAAGAGUUCACCCGCCAUGCUUCCGAUUCUCAUAUCUCCGAUUAUUAUGAAAAUCCAGCCAUCAAAGAGGAUGUAUCAACAUUCAACAGAGGAUUGAGCAUCA
B9: ENSG00000198589:be:win_3401|CDS|ENSG00000198589|bound_else_gene|NA|bound_elsewhere_windowed (ssRNA)
RNA: GGGAGUUCUACAGUCCGACGAUCUGUCUCCAGCUGCAUCUGAAGCCGGUGAAAAACUGGACAUGUUUGGUAAUGAUGACAAAUUAAUAUUUCAAGAAGGAAAACCUGUUACUGAAAAGCAAACUGAUACUGAAACUCAAGAUUCAACAGAGGAUUGAGCAUCA
B10: chr3:58172026:58172127:+|3pUTR|ENSG00000136068|msi1|total|mutant (ssRNA)
RNA: GGGAGUUCUACAGUCCGACGAUCGGCAGACCUUCCGGUUUUGCUGCUCCGUCCUGAGGAAGUGGCCACUCUUGUGGCAGGUGCCGUAUCUGGGGCGAGUGUUGGGGGUAAAAGCCCACCCUACAGAAAGUGGAACAGCCCGGACAACAGAGGAUUGAGCAUCA
B11: chr5:123575802:123575904:+|CDS|ENSG00000151292|unk|total|mutant (ssRNA)
RNA: GGGAGUUCUACAGUCCGACGAUCACCUGAGAACUUCUUAACCGGACGACCAGGAAACAAAACCCAGCAAGUUAUUCACAUUACCGAUUUUGGUUUGGCAAAGGAAUAUAUUGAUCCGGAGACAAAGAAACACAUACCAUACAGCAACAGAGGAUUGAGCAUCA
B12: chr8:116846039:116846140:-|3pUTR|ENSG00000164754|msi1|total|mutant (ssRNA)
RNA: GGGAGUUCUACAGUCCGACGAUCACAUUCAAUAUGAUGUGCCUGUAAACCAAGGAGUUUUCCCCGUUUGUAAAAAGACAUUGCCGAUAAUUGAAUGUUUGAUUUCCGAAAGGUCAUCCGUUUCUUGUUACACAUUUUGUCCGUCAACAGAGGAUUGAGCAUCA
B13: chr4:152882748:152882856:+|CDS|ENSG00000164144|unk|FALSE|unique (ssRNA)
RNA: GGGAGUUCUACAGUCCGACGAUCCAGAAACUGCUGGCUAAAAAUGGAGAGACUCUUCUUGGGGCCAUUAAUUUUUUCAUUGCUAGUGUGAACACUUUGGUGAAUAAAACCAUUGAAGAUACAUUAAUGACUGUGAAACAGUAUCAACAGAGGAUUGAGCAUCA
B14: chr12:106239179:106239280:-|CDS|ENSG00000136026|msi1|FALSE|unique (ssRNA)
RNA: GGGAGUUCUACAGUCCGACGAUCGGACCAAGCCCAGGCCGCCCGUCUGCCUCCUCAGGACUUCCUGGACAGACUUUCUUCUCUAGACAACCUGAAAGCCUCAGUCAGCCAAGUGGAGGCGGACUUGAAAAUGCUCAGGACUGCCAACAGAGGAUUGAGCAUCA
B15: ENSG00000160710:stop:overlap|stop_codon|ENSG00000160710|stop_codon|NA|stop_codon (ssRNA)
RNA: GGGAGUUCUACAGUCCGACGAUCGCUAUGGGAACUGGAUUAGCAAACCCCAGGAGGAAAAGAACUUUUAUCUCUGCCCAGUAUAGUAUGCUCCAGUGACAGAUGGAUUAGGGUGUGUCAUACUAGGGUGUGAGAGAGGUAGGUCAACAGAGGAUUGAGCAUCA
B16: chr3:15667380:15667481:-|3pUTR|ENSG00000206560|msi1|total|mutant (ssRNA)
RNA: GGGAGUUCUACAGUCCGACGAUCUAUACAUAAAAGAUGACAUCUGAAAUAUCUGAUGUGUAUUAUAAUACCAGCUUCUGCUCCCGAACUACUUUGGGUGAAAUGGUGGUAACCGCAAAUGACCUCCUUUAACAAGACACUCAUCAACAGAGGAUUGAGCAUCA
B17: ENSG00000107863:be:win_1601|CDS|ENSG00000107863|bound_else_gene|NA|bound_elsewhere_windowed (ssRNA)
RNA: GGGAGUUCUACAGUCCGACGAUCAGGAUGAUAGACGAGGUAUUUGUGAAAGACCUAGGCAGCAAGAAAUUCAUAAAUCUUUUCGAGGUUCCAAUUUUACUGUGGCUCCAAGCGUUGUUAAUUCUGAUAACAGGCGAAUGAGUGCAACAGAGGAUUGAGCAUCA
B18: ENSG00000198589:be:win_1951|CDS|ENSG00000198589|bound_else_gene|NA|bound_elsewhere_windowed (ssRNA)
RNA: GGGAGUUCUACAGUCCGACGAUCAUGCUUUCUCUACGAGCAUUCUUGUUGAUGUUCAUUAAGCAAUUAGUGAUGAAGGAUUCUGGAGUAAAGGAAGAUGAAUUACAGGCCAUUCUUAAUUACCUACUGACUAUGCAUGAGGAUCAACAGAGGAUUGAGCAUCA
B19: chr2:37227669:37227839:-|CDS|ENSG00000115816|unk|FALSE|unique (ssRNA)
RNA: GGGAGUUCUACAGUCCGACGAUCGUUUACUUUUGCUUUUUUCGGACUUGUGUCAAAAAAAAAGAUGUUGAAUCAAAAAUGCUUAGCGCCCUUUUAACAGGUGUGAAUAGGGCAUACCCUUAUUCCCAGACUGGUGAUGACAAACAACAGAGGAUUGAGCAUCA
B20: chr2:65312585:65312700:-|3pUTR|ENSG00000198369|unk|total|mutant (ssRNA)
RNA: GGGAGUUCUACAGUCCGACGAUCUGGACCAGGGCCCGAAUGGGGAUUUCAGGUUUCUAUGAGCCUCCCCAUUACCCCUAAAGCCGAACAUUUUUUAAAUUGUGUUGCCACCACUUCUAAAAAUUCCGCAAUAUCCGAACCGGACAACAGAGGAUUGAGCAUCA
B21: chr8:73241459:73241605:-|CDS|ENSG00000274443|control|control|control (ssRNA)
RNA: GGGAGUUCUACAGUCCGACGAUCUGGCUUCAGUGAUCCUCUCACUGGAGCACCAUCUCAAUACUUAGAGAGACUUUCCAAAAUAGCCAUAUUGGAAUAUGAUACCAUUCGUCAGGAAACAACCACAAAAUCAAAAAAAAGCAACAACAGAGGAUUGAGCAUCA
B22: chr11:27366961:27367062:-|3pUTR|ENSG00000205213|msi1|FALSE|unique (ssRNA)
RNA: GGGAGUUCUACAGUCCGACGAUCUGAAUACUUCCUAAUAUCGUUGGCUCUACUAAUAUUUUCCAAUUUGCUGGGAUGUCACCUAGCAAUAGCUUGGAUUAUAUAGAAAGUAAACUGUGGUCAAUACUUGCAUUUAAUUAGACGCAACAGAGGAUUGAGCAUCA

Molecular target: T1, UNK ZnF1-6 (called full-length)
Assay: nsRBNS (natural sequence RNA bind-n-seq); RBNS binding buffer (assumed for nsRBNS): 25 mM Tris pH 7.5, 150 mM KCl, 3 mM MgCl2, 0.01% Triton X-100, 500 ug/ml BSA, 20 U/ml SUPERase-In, 4 C; UNK is unkempt and MSI1 is Musashi-1; names of the RNAs are library labels; protein concentration not given here; high values mean tight binding

Binder | binding signal [enrichment R]
B1 | 0.568
B2 | 0.94
B3 | 0.729
B4 | 0.535
B5 | 0.957
B6 | 0.569
B7 | 0.511
B8 | 0.252
B9 | 0.246
B10 | 0.663
B11 | 0.568
B12 | 0.265
B13 | 0.365
B14 | 1
B15 | 1.34
B16 | 0.302
B17 | 0.613
B18 | 0.436
B19 | 0.294
B20 | 0.534
B21 | 0.477
B22 | 0.708
